US8304419B2, “Chemical compounds” (priority 2007, dated 2012)

Key:
Assay in all cases: microbe, parasite or virus in culture
HIV-1 V106A RT mutant = details: Human immunodeficiency virus 1, HeLa
HIV-1 K103N RT mutant = details: Human immunodeficiency virus 1, HeLa
HIV-1 Y181C RT mutant = details: Human immunodeficiency virus 1, HeLa
HIV-1 Y188L RT mutant = details: Human immunodeficiency virus 1, HeLa, read-out: IC50 against Y188L
[1] = read-out: V106A activity level, HeLa-CD4-LTR-β-gal cells, V106A virus
[2] = read-out: K103N activity level, HeLa-CD4-LTR-β-gal cells, K103N virus
[3] = read-out: Y181C activity level, HeLa-CD4-LTR-β-gal cells, Y181C virus
[4] = read-out: IC50 against V106A, HeLa cell assay
[5] = read-out: IC50 against K103N, HeLa cell assay
[6] = read-out: IC50 against Y181C, HeLa cell assay

CNCC(=O)Nc1ccc2[nH]c(C(=O)NCc3ccc(Cl)c(Oc4cc(Cl)cc(C#N)c4)c3F)cc2c1 [Example 119]
IC50 (HIV-1 V106A RT mutant; [1]): 10 to 1000 nM
IC50 (HIV-1 K103N RT mutant; [2]): < 10 nM
IC50 (HIV-1 Y181C RT mutant; [3]): 10 to 1000 nM

N#Cc1cc(Cl)cc(Oc2c(Cl)ccc(CNC(=O)c3cc4cc(NC(=O)CN)ccc4[nH]3)c2F)c1 [Example 120, N-({4-chloro-3-[(3-chloro-5-cyanophenyl)oxy]-2-fluorophenyl}methyl)-5-(glycylamino)-1H-indole-2-carboxamide trifluoroacetate]
IC50 (HIV-1 V106A RT mutant; [1]): 10 to 1000 nM
IC50 (HIV-1 K103N RT mutant; [2]): < 10 nM
IC50 (HIV-1 Y181C RT mutant; [3]): 10 to 1000 nM

CC(=O)Nc1ccc2[nH]c(C(=O)NCc3ccc(Cl)c(Oc4cc(Cl)cc(C#N)c4)c3F)cc2c1 [Example 121, 5-(acetylamino)-N-({4-chloro-3-[(3-chloro-5-cyanophenyl)oxy]-2-fluorophenyl}methyl)-1H-indole-2-carboxamide]
IC50 (HIV-1 V106A RT mutant; [1]): 10 to 1000 nM
IC50 (HIV-1 K103N RT mutant; [2]): < 10 nM
IC50 (HIV-1 Y181C RT mutant; [3]): < 10 nM

CC(=O)Nc1ccc2cc(C(=O)NCc3ccc(Cl)c(Oc4cc(Cl)cc(C#N)c4)c3F)[nH]c2c1 [Example 122, 6-(acetylamino)-N-({4-chloro-3-[(3-chloro-5-cyanophenyl)oxy]-2-fluorophenyl}methyl)-1H-indole-2-carboxamide]
IC50 (HIV-1 V106A RT mutant; [1]): < 10 nM
IC50 (HIV-1 K103N RT mutant; [2]): < 10 nM
IC50 (HIV-1 Y181C RT mutant; [3]): < 10 nM

N#Cc1cc(Cl)cc(Oc2c(Cl)ccc(CNC(=O)c3cc4ccc(N)cc4[nH]3)c2F)c1 [Example 123, 6-amino-N-({4-chloro-3-[(3-chloro-5-cyanophenyl)oxy]-2-fluorophenyl}methyl)-1H-indole-2-carboxamide trifluoroacetate]
IC50 (HIV-1 V106A RT mutant; [1]): 10 to 1000 nM
IC50 (HIV-1 K103N RT mutant; [2]): < 10 nM
IC50 (HIV-1 Y181C RT mutant; [3]): < 10 nM

N#Cc1cc(Cl)cc(Oc2c(Cl)ccc(CNC(=O)c3nc4ccc([N+](=O)[O-])cc4[nH]3)c2F)c1 [Example 124, N-({4-chloro-3-[(3-chloro-5-cyanophenyl)oxy]-2-fluorophenyl}methyl)-5-nitro-1H-benzimidazole-2-carboxamide]
IC50 (HIV-1 V106A RT mutant; [1]): 10 to 1000 nM
IC50 (HIV-1 K103N RT mutant; [2]): 10 to 1000 nM
IC50 (HIV-1 Y181C RT mutant; [3]): 10 to 1000 nM

CC(=O)Nc1ccc2[nH]c(C(=O)NCc3ccc(Cl)c(Oc4cc(Cl)cc(C#N)c4)c3F)nc2c1 [Example 125, 5-(acetylamino)-N-({4-chloro-3-[(3-chloro-5-cyanophenyl)oxy]-2-fluorophenyl}methyl)-1H-benzimidazole-2-carboxamide]
IC50 (HIV-1 V106A RT mutant; [1]): 10 to 1000 nM
IC50 (HIV-1 K103N RT mutant; [2]): < 10 nM
IC50 (HIV-1 Y181C RT mutant; [3]): < 10 nM

CN(C)c1ccc2[nH]c(C(=O)NCc3ccc(Cl)c(Oc4cc(Cl)cc(C#N)c4)c3F)cc2c1 [Example 126, N-({4-chloro-3-[(3-chloro-5-cyanophenyl)oxy]-2-fluorophenyl}methyl)-5-(dimethylamino)-1H-indole-2-carboxamide]
IC50 (HIV-1 V106A RT mutant; [1]): 10 to 1000 nM
IC50 (HIV-1 K103N RT mutant; [2]): 10 to 1000 nM
IC50 (HIV-1 Y181C RT mutant; [3]): 10 to 1000 nM

N#Cc1cc(Cl)cc(Oc2c(Cl)ccc(CNC(=O)c3cc4cc(N(CC5CC5)CC5CC5)ccc4[nH]3)c2F)c1 [Example 127, 5-[bis(cyclopropylmethyl)amino]-N-({4-chloro-3-[(3-chloro-5-cyanophenyl)oxy]-2-fluorophenyl}methyl)-1H-indole-2-carboxamide]
IC50 (HIV-1 V106A RT mutant; [1]): 10 to 1000 nM
IC50 (HIV-1 K103N RT mutant; [2]): 10 to 1000 nM
IC50 (HIV-1 Y181C RT mutant; [3]): 10 to 1000 nM

N#Cc1cc(Cl)cc(Oc2c(Cl)ccc(CNC(=O)c3[nH]ccc3Cl)c2F)c1 [Example 128, 3-chloro-N-({4-chloro-3-[(3-chloro-5-cyanophenyl)oxy]-2-fluorophenyl}methyl)-1H-pyrrole-2-carboxamide]
IC50 (HIV-1 V106A RT mutant; [4]): < 10 nM
IC50 (HIV-1 V106A RT mutant; [1]): < 10 nM
IC50 (HIV-1 K103N RT mutant; [5]): < 10 nM
IC50 (HIV-1 K103N RT mutant; [2]): < 10 nM
IC50 (HIV-1 Y181C RT mutant; [6]): < 10 nM
IC50 (HIV-1 Y181C RT mutant; [3]): < 10 nM
IC50 (HIV-1 Y188L RT mutant): < 10 nM

CN(Cc1ccc(Cl)c(Oc2cc(Cl)cc(C#N)c2)c1F)C(=O)c1ccc[nH]1 [Example 129, N-({4-chloro-3-[(3-chloro-5-cyanophenyl)oxy]-2-fluorophenyl}methyl)-N-methyl-1H-pyrrole-2-carboxamide]
IC50 (HIV-1 V106A RT mutant; [1]): < 10 nM
IC50 (HIV-1 K103N RT mutant; [2]): < 10 nM
IC50 (HIV-1 Y181C RT mutant; [3]): < 10 nM

CN(Cc1ccc(Cl)c(Oc2cc(Cl)cc(C#N)c2)c1F)C(=O)c1ncc[nH]1 [Example 130, N-({4-chloro-3-[(3-chloro-5-cyanophenyl)oxy]-2-fluorophenyl}methyl)-N-methyl-1H-imidazole-2-carboxamide]
IC50 (HIV-1 V106A RT mutant; [1]): 10 to 1000 nM
IC50 (HIV-1 K103N RT mutant; [2]): < 10 nM
IC50 (HIV-1 Y181C RT mutant; [3]): < 10 nM

CN(Cc1ccc(Cl)c(Oc2cc(Cl)cc(C#N)c2)c1F)C(=O)c1[nH]cnc1Cl [Example 132, 4-chloro-N-({4-chloro-3-[(3-chloro-5-cyanophenyl)oxy]-2-fluorophenyl}methyl)-N-methyl-1′-imidazole-5-carboxamide trifluoroacetate]
IC50 (HIV-1 V106A RT mutant; [1]): 10 to 1000 nM
IC50 (HIV-1 K103N RT mutant; [2]): < 10 nM
IC50 (HIV-1 Y181C RT mutant; [3]): < 10 nM

N#Cc1cc(Cl)cc(Oc2c(Cl)ccc(CNC(=O)c3[nH]cnc3Br)c2F)c1 [Example 133, 4-bromo-N-({4-chloro-3-[(3-chloro-5-cyanophenyl)oxy]-2-fluorophenyl}methyl)-1H-imidazole-5-carboxamide trifluoroacetate]
IC50 (HIV-1 V106A RT mutant; [4]): < 10 nM
IC50 (HIV-1 V106A RT mutant; [1]): < 10 nM
IC50 (HIV-1 K103N RT mutant; [5]): < 10 nM
IC50 (HIV-1 K103N RT mutant; [2]): < 10 nM
IC50 (HIV-1 Y181C RT mutant; [6]): < 10 nM
IC50 (HIV-1 Y181C RT mutant; [3]): < 10 nM
IC50 (HIV-1 Y188L RT mutant): < 10 nM

Cc1nc(Br)c(C(=O)NCc2ccc(Cl)c(Oc3cc(Cl)cc(C#N)c3)c2F)[nH]1 [Example 134, 4-bromo-N-({4-chloro-3-[(3-chloro-5-cyanophenyl)oxy]-2-fluorophenyl}methyl)-2-methyl-1H-imidazole-5-carboxamide]
IC50 (HIV-1 V106A RT mutant; [1]): < 10 nM
IC50 (HIV-1 K103N RT mutant; [2]): < 10 nM
IC50 (HIV-1 Y181C RT mutant; [3]): < 10 nM

CC(C)c1nc(Cl)c(C(=O)NCc2ccc(Cl)c(Oc3cc(Cl)cc(C#N)c3)c2F)[nH]1 [Example 135, 4-chloro-N-({4-chloro-3-[(3-chloro-5-cyanophenyl)oxy]-2-fluorophenyl}methyl)-2-(1-methylethyl)-1H-imidazole-5-carboxamide trifluoroacetate]
IC50 (HIV-1 V106A RT mutant; [1]): < 10 nM
IC50 (HIV-1 K103N RT mutant; [2]): < 10 nM
IC50 (HIV-1 Y181C RT mutant; [3]): < 10 nM

N#Cc1cc(Cl)cc(Oc2c(Cl)ccc(CNC(=O)c3[nH]c(C4CC4)nc3Cl)c2F)c1 [Example 136, 4-chloro-N-({4-chloro-3-[(3-chloro-5-cyanophenyl)oxy]-2-fluorophenyl}methyl)-2-cyclopropyl-1H-imidazole-5-carboxamide trifluoroacetate]
IC50 (HIV-1 V106A RT mutant; [1]): < 10 nM
IC50 (HIV-1 K103N RT mutant; [2]): < 10 nM
IC50 (HIV-1 Y181C RT mutant; [3]): < 10 nM

Cc1nc(Cl)c(C(=O)NCc2ccc(Cl)c(Oc3cc(Cl)cc(C#N)c3)c2F)[nH]1 [Example 137, 4-chloro-N-({4-chloro-3-[(3-chloro-5-cyanophenyl)oxy]-2-fluorophenyl}methyl)-2-methyl-1H-imidazole-5-carboxamide]
IC50 (HIV-1 V106A RT mutant; [1]): < 10 nM
IC50 (HIV-1 K103N RT mutant; [2]): < 10 nM
IC50 (HIV-1 Y181C RT mutant; [3]): < 10 nM

CCCc1nc(Cl)c(C(=O)NCc2ccc(Cl)c(Oc3cc(Cl)cc(C#N)c3)c2F)[nH]1 [Example 139, 4-chloro-N-({4-chloro-3-[(3-chloro-5-cyanophenyl)oxy]-2-fluorophenyl}methyl)-2-propyl-1H-imidazole-5-carboxamide]
IC50 (HIV-1 V106A RT mutant; [1]): < 10 nM
IC50 (HIV-1 K103N RT mutant; [2]): < 10 nM
IC50 (HIV-1 Y181C RT mutant; [3]): < 10 nM

CCCCc1nc(Cl)c(C(=O)NCc2ccc(Cl)c(Oc3cc(Cl)cc(C#N)c3)c2F)[nH]1 [Example 140, 2-butyl-4-chloro-N-({4-chloro-3-[(3-chloro-5-cyanophenyl)oxy]-2-fluorophenyl}methyl)-1H-imidazole-5-carboxamide trifluoroacetate]
IC50 (HIV-1 V106A RT mutant; [1]): 10 to 1000 nM
IC50 (HIV-1 K103N RT mutant; [2]): < 10 nM
IC50 (HIV-1 Y181C RT mutant; [3]): < 10 nM

N#Cc1cc(Cl)cc(Oc2c(Cl)ccc(CNC(=O)c3[nH]c4cc(OCCO)ccc4c3Br)c2F)c1 [Example 141, 3-Bromo-N-({4-chloro-3-[(3-chloro-5-cyanophenyl)oxy]-2-fluorophenyl}methyl)-6-[(2-hydroxyethyl)oxy]-1H-indole-2-carboxamide]
IC50 (HIV-1 V106A RT mutant; [1]): < 10 nM
IC50 (HIV-1 K103N RT mutant; [2]): < 10 nM
IC50 (HIV-1 Y181C RT mutant; [3]): < 10 nM

N#Cc1cc(Cl)cc(Oc2c(Cl)ccc(CNC(=O)c3cc4ccc(OCCO)cc4[nH]3)c2F)c1 [Example 142, N-({4-chloro-3-[(3-chloro-5-cyanophenyl)oxy]-2-fluorophenyl}methyl)-6-[(2-hydroxyethyl)oxy]-1H-indole-2-carboxamide]
IC50 (HIV-1 V106A RT mutant; [1]): < 10 nM
IC50 (HIV-1 K103N RT mutant; [2]): < 10 nM
IC50 (HIV-1 Y181C RT mutant; [3]): < 10 nM

C=Cc1cc(C#N)cc(Oc2c(Cl)ccc(CNC(=O)c3[nH]cnc3Cl)c2F)c1 [Example 143, 4-chloro-N-({4-chloro-3-[(3-cyano-5-ethenylphenyl)oxy]-2-fluorophenyl}methyl)-1H-imidazole-5-carboxamide]
IC50 (HIV-1 V106A RT mutant; [4]): < 10 nM
IC50 (HIV-1 K103N RT mutant; [5]): < 10 nM
IC50 (HIV-1 Y181C RT mutant; [6]): < 10 nM
IC50 (HIV-1 Y188L RT mutant): < 10 nM

N#Cc1cc(Cl)cc(Oc2c(Cl)ccc(CNC(=O)c3[nH]cnc3Cl)c2F)c1Cl [Example 144, 4-chloro-N-({4-chloro-3-[(2,5-dichloro-3-cyanophenyl)oxy]-2-fluorophenyl}methyl)-1H-imidazole-5-carboxamide]
IC50 (HIV-1 V106A RT mutant; [4]): < 10 nM
IC50 (HIV-1 K103N RT mutant; [5]): < 10 nM
IC50 (HIV-1 Y181C RT mutant; [6]): < 10 nM
IC50 (HIV-1 Y188L RT mutant): < 10 nM

Cc1cc(C#N)cc(Oc2c(Cl)ccc(CNC(=O)c3[nH]cnc3Cl)c2F)c1 [Example 145, 4-chloro-N-({4-chloro-3-[(3-cyano-5-methylphenyl)oxy]-2-fluorophenyl}methyl)-1H-imidazole-5-carboxamide]
IC50 (HIV-1 V106A RT mutant; [4]): < 10 nM
IC50 (HIV-1 K103N RT mutant; [5]): < 10 nM
IC50 (HIV-1 Y181C RT mutant; [6]): < 10 nM
IC50 (HIV-1 Y188L RT mutant): < 10 nM

Cc1cc(C#N)cc(Oc2c(Cl)ccc(CNC(=O)c3[nH]c(C)nc3Br)c2F)c1 [Example 146, 4-bromo-N-({4-chloro-3-[(3-cyano-5-methylphenyl)oxy]-2-fluorophenyl}methyl)-2-methyl-1H-imidazole-5-carboxamide]
IC50 (HIV-1 V106A RT mutant; [4]): < 10 nM
IC50 (HIV-1 K103N RT mutant; [5]): < 10 nM
IC50 (HIV-1 Y181C RT mutant; [6]): < 10 nM
IC50 (HIV-1 Y188L RT mutant): < 10 nM

Counter-ions that a name gives are not always drawn. Like-named read-outs stand apart in the source and are kept apart here.
